The list shows a part of the results. At the low end of the ranking the order means little. Measured with an extract: partners may take part in the binding.
biological target: T1, HNF4alpha2 (COS-7 nuclear extract) (UniProt P41235); assay: protein-binding microarray; settings: COS-7 nuclear extract on double-stranded Agilent 4x180k PBM; binding buffer, salt, pH and temperature not given; high values mean tight binding; double strand, one strand shown; sequences stand for … in …GCCTAGGGAGATTAGAGTATCGGTCGA
T1 sequence: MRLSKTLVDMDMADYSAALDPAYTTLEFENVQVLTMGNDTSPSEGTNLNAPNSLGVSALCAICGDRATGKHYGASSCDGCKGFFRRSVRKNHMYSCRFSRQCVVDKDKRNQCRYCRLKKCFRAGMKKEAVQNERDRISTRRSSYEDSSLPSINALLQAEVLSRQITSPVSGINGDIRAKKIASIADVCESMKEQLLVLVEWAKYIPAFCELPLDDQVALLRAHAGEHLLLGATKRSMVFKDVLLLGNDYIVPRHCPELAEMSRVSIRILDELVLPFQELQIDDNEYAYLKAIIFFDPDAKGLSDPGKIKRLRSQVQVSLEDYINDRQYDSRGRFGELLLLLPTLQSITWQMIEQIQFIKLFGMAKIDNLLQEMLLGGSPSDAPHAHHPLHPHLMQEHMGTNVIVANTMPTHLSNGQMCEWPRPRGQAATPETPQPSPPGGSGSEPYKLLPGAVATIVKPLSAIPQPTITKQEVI

| Sequence | binding signal (log2 normalized intensity) |
| --- | --- |
| AGCCAAAATAAAGCAGCAAACCAGATAAGA | -1.19 |
| GTTGCCTGTGAGTCAGGTACCTGCTTCTGC | 0.713 |
| GGTCGAAAGGCAGGCAGTGGAGGGCTCCCT | -1.15 |
| TAAAGGCTTTTAAAGGCTAGTGAAACATGC | -0.739 |
| GCAAAGTGGCTAGGACCTTTGAACCAGAGA | 4.44 |
| TTTTCCACCCTCCCCTCCCCCTCCTCCCCT | 7.13 |
| GTCAGCTTCAGCCAGATAGCCACTGGGGTC | 2.25 |
| CGCCCCCATTATCTCCTTAGGTACTTTTCT | 0.449 |
| GAGGTCACCCTGTGTCAGCGACTGGGCAGT | -1.21 |
| GGAGCCCCCTGGGGGAGGTTTCCTGCTGTC | -0.946 |
| CCTTTTGTGTAGGAGTACACTCAGCACACC | 1.16 |
| GCTGCTTTAGACATGAGATAGCATTCCAAG | -1.23 |
| GGGTATAACCTTCTTCTATGCCCTCTTCTG | 2.43 |
| CAGGGATTATTAATTTACTGAAAAGTCTAC | -1.15 |
| GGATTATGGAGATGGAGATGGCCTGGAGGT | 1.06 |
| AATTATCCAGATCAAGGATTTTTTCTTGGA | -1.12 |
| CGACCTGCTGGACGGGAGGAAAACTGGGCA | -1.32 |
| TCTTCCTTTCTATCAGCTCTCCGTGGACTT | 3.08 |
| CTGAGCAGGGTCCAACCCACAGGGGTAGAA | -0.649 |
| TTTCCTGCCTGCCGGCTCTGAAGAGAACGG | -1.12 |
| CTAGCTCACTGATAAGAAAGGCTTCTGGGA | -1.3 |
| AAAAATATTGAACAAAGATTGCTTGCCAGT | 0.996 |
| ACTGGAAGCAAGCCCTATTAGGCATTTCAT | -1.06 |
| TCAATCCTGGCCTCTGAGGTGTTAACCTGA | 0.695 |

| Sequence | binding signal (log2 normalized intensity) |
| --- | --- |
| ATTATCAGTAACTCACTATCAGGAAACTCT | -1.04 |
| CAAGCAAACACACTTGCTCTAATCCTTTAA | -1.06 |
| CTTCCTCATGATCGCTTCCAGGGTTACCGG | 0.203 |
| CAGTGGGGGGGGGGGGGGGGGTGTGTCTGT | 1.34 |
| TTCGGTGTCATCTAGACCTGGACTTGAAGC | 1.71 |
| AGGTAATGGTCTCTCCCAGCGGGTCATTAA | 0.927 |
| TATGTGAGTACACACTGTAAAATTTCATGG | 0.0982 |
| GGGGCGCGGCCTAATGCCTGGGAAAATGTT | -1.09 |
| GGGAGCAGTGGGCATATCTTTTTATCTCTG | 0.0411 |
| GGAATGCAGCTCAGACTGCTTCTCTGCTGG | -1.01 |
| AGTTTTGCAACATACTGAAAAAGGGTTGTG | 0.751 |
| CGTAATCCCAGCTTATGTTTGCAAGTCGAG | 1.55 |
| AACCTCAGTGTTTGCTCCTAAGGCCTTCAA | -1.08 |
| AAGGAGAGGGGGCGGGGAGAGGGAAGAGTC | -1.18 |
| AGGGGCCCACCTCCACTCTCATAAAAGAGG | -1.11 |
| TCTTTGCCCCAGCTCGCTCAGCTGGTTGCC | -1.03 |
| TGAGAATCTGACCTTTGGTTAACTTCTTAA | 4.02 |
| TCCACTGTGTTCTTGTTTGCTAAGTGAGAA | 1.16 |
| CAGTCTCAGTGGGCTAAACATCAAGACAGG | -1.05 |
| CCTAATGGGGTACTTGAACCCTACTCATAA | 1.56 |
| AAGCCCCAAATCTAGCATCAGTGAGTCAAG | 0.607 |
| AGAAAGCAAAGTCCCTGGGGACAGGGATTA | -0.815 |
| CCCAGGTACGGAGGACAGCCACCCGTGCTT | -0.928 |
| CTGCAGATTCCACCTTAGAGGGACGAAGGT | -1.09 |

| Sequence | binding signal (log2 normalized intensity) |
| --- | --- |
| CCCCATCGCACGGCAGAACTGGTGACCGGA | 1.66 |
| TGTGGTTATCTGTTGGGGAATCAGTCCATA | 1.39 |
| TTATCCCAAATGTTTGCACTGAGGAATGGA | 1.19 |
| GAGTGGACTTTGGCTTATGCAAATGTTATG | 4.25 |
| AAACGATGTGAGGTCTCTGCATACCAGGTA | -1.24 |
| CTGCCAGGGAGACAAAGTGTCACAAACTAT | -1.23 |
| AAGAGCCGGCCGGCGGGGTCACGTGGGGCC | 2.81 |
| AAGAGTCAAAGGGCAAAGGAATAAAATAGC | -0.272 |
| GTATCTAATCTCAGATATGCTAATTAACCC | 1.79 |
| GGACTCATTCTCCCCTGGAGTCTTAAATCC | -0.15 |
| TATCAGGTGGTGATGGTGGGAGGGAGGCTT | -1.09 |
| AGGAGCCTTCCGGAGGCTCTGCTGAAGAGA | -1.19 |
| TCCATTTAGCTTCAGTCTAAATGATGGCCA | 1.44 |
| CCAAATCATGGAGGTGTGGGGAGTTCCTTC | 0.0523 |
| GTGCCTCAACCGAGCGTCCAAGCTCTTTCC | -1.12 |
| TTTAAAAAAATTCCTCCTTGGATTCCTAAG | -1.09 |
| AAGGTTTGTTCTTATCATGCTGTCTCTGAA | 0.885 |
| GTGTGGCAGAAAACGCAATTGCCCTACAGC | -0.277 |
| GGAAGTGGCTAGAGGTCGCGAGAGAACTGA | -0.898 |
| ATTTTCCCATGGTCTGTAGAAGGCGCTGTG | -1.23 |
| AGCCTCTCACAGTAGCCCAGGTCCTTTGGT | 0.178 |
| ACCCTCAGACACACAGTCCACAGGCTATAG | -1.11 |
| GAGGAGACCTTTGGATATCATATCATCTTC | 1.32 |
| TCACTGTGAAGACGTTAGGGGGCAGCAGGG | -0.462 |

Source: paper PMC10726135
